The source of these data is the supplement of paper PMC10126150.

The subject of this series is ATP. The series can be described thus: switch fluorescence ratio, 500 uM ATP over buffer (Cy3 cluster intensity, sum of 5 cycles each) (fold (ratio)); higher = stronger signal-on switching upon ATP binding; sequences stand for … in TCGTCGGCAGCGTCAGATGTGTATAAGAGACAGTTTTTTTTTTTTTTTTTTTTTTTTT…TC. The following applies: aptamer strand: ATP DNA aptamer (quencher-CACCTGGGGGAGTATTGCGGAGGAAGG + anchor), 100 nM annealed; ATP concentration: 500 uM; one replicate. Put shortly: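 Switching-strand clusters labelled with Cy3 on a modified Illumina MiSeq flow-cell were annealed to 100 nM quencher-labelled ATP aptamer, imaged in selection buffer, and re-imaged after 15 min with 500 uM ATP at 22 °C. This was done over five cycles with NaOH stripping and re-annealing in between. The fluorescence ratio is summed target-cycle over summed buffer-cycle Cy3 intensity per cluster, averaged per switch-domain sequence, excluding clusters outside 100-1000 RFU.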

Values marked as one replicate rest on one cluster of the flow cell; about a third of the high ones do not repeat.
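Also: ATP exposure 15 min at 22 °C before imaging.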

As to TAAAAGCGCA, the switch fluorescence ratio is 0.968.

Turning to TGGCTACCTC, the switch fluorescence ratio amounted to 1.06.

Take GACTCAGGGA: the switch fluorescence ratio was 0.989.

Take CACGTGCGCT: the switch fluorescence ratio stood at 1.03.

On to TGGTCATGTC, for which the switch fluorescence ratio stood at 0.981.

AACAGTCATT: the switch fluorescence ratio stood at 0.991.

In the case of AATTGTGAAC, the switch fluorescence ratio came to 0.987.

Take CTGTCCGCTG: the switch fluorescence ratio amounted to 1.81.

Turning to ACGTGCTCTT, the switch fluorescence ratio was 0.984.

Regarding TGGGCCTTCA, the switch fluorescence ratio was 1.44.

As to CAATTGATAA, the switch fluorescence ratio was 1.01.

Regarding TTTGAGACC, the switch fluorescence ratio came to 0.979.

For TATTTAGCCG, the switch fluorescence ratio amounted to 0.975.

For the sequence ATTATTGATG, the switch fluorescence ratio stood at 1.04.

TGTTTATGTG: the switch fluorescence ratio was 1.05.

As to GCGTTGGTTC, the switch fluorescence ratio worked out at 1.03.

With CCCATCGGAA, the switch fluorescence ratio worked out at 1.04.

Regarding TTAGGTTTAC, the switch fluorescence ratio turned out to be 0.978.

For the sequence TGTGCTCCCC, the switch fluorescence ratio amounted to 1.89.

Consider AGGCAGGAG, for which the switch fluorescence ratio turned out to be 1.

Take CCCCCTTTGT: the switch fluorescence ratio worked out at 1.11.

As for AGGTAACGGC, the switch fluorescence ratio was found to be 1.01.

Take CTGAGCGAT: the switch fluorescence ratio was 1.24.

On to GCTCCAGAAG, for which the switch fluorescence ratio amounted to 1.08.

As to AGGCAGAGCA, the switch fluorescence ratio was determined as 0.979.

CCTAGTTCTC: the switch fluorescence ratio was determined as 1.05.

As for CCCGGGGCTT, the switch fluorescence ratio amounted to 1.11.

Take TCTGTTCCCC: the switch fluorescence ratio worked out at 1.28.

As to TTGATTACCT, the switch fluorescence ratio is 1.08.

For GCGGAATTG, the switch fluorescence ratio turned out to be 1.02.

AAGAACGTAT: the switch fluorescence ratio was found to be 1.01.

On to TACTGAAACT, for which the switch fluorescence ratio was determined as 1.08.

Regarding ATGATCTGGT, the switch fluorescence ratio was determined as 0.99.

As to TTAGCCAGG, the switch fluorescence ratio was 1.12.

Regarding TACCCAATGT, the switch fluorescence ratio amounted to 0.99.

TTGTCCTGTA: the switch fluorescence ratio was found to be 0.968.

With CTGGCTATAT, the switch fluorescence ratio came to 1.1.

For the sequence GGTTACGACT, the switch fluorescence ratio is 0.973.

For the sequence GATAACATTT, the switch fluorescence ratio is 0.991.

For the sequence CGCAGGGGTT, the switch fluorescence ratio is 1.18.

On to TTCGTTCGGC, for which the switch fluorescence ratio was determined as 1.03.

For the sequence GATCCGTATA, the switch fluorescence ratio was found to be 1.22.

Take TGAGTAGTCT: the switch fluorescence ratio turned out to be 1.1.

As for AAAGTGGCCG, the switch fluorescence ratio turned out to be 0.965.

Take TAATAAATAG: the switch fluorescence ratio is 0.995.

With AACGGTTGCC, the switch fluorescence ratio was found to be 0.974.

Take CGCCGCTGTG: the switch fluorescence ratio turned out to be 1.4.

Regarding GCTAGTAAGC, the switch fluorescence ratio is 0.951.

For ATAGTGTTT, the switch fluorescence ratio is 0.966.

GACGGAGAAG: the switch fluorescence ratio was 1.01.

In the case of AGAGAAAATG, the switch fluorescence ratio is 0.96.

For CTTGTTTGAT, the switch fluorescence ratio came to 1.

On to CGATAGGACA, for which the switch fluorescence ratio amounted to 0.997.

As to GCCGGTTCGC, the switch fluorescence ratio came to 1.06.

For the sequence GACGGGGTTG, the switch fluorescence ratio turned out to be 1.03.

With CATTCCAGTA, the switch fluorescence ratio was 0.993.

Turning to GTCCTAGATG, the switch fluorescence ratio is 0.955.

For the sequence AGGGAGTCGG, the switch fluorescence ratio was 1.

Consider GCAGTGAGCA, for which the switch fluorescence ratio turned out to be 0.97.

As for CACTGGTTCT, the switch fluorescence ratio was 1.02.

Consider GACACGACAC, for which the switch fluorescence ratio is 2.09.

Take GCGTTGGTCT: the switch fluorescence ratio was found to be 1.02.

In the case of GAAATATTGC, the switch fluorescence ratio was found to be 1.03.

For the sequence GAACGAGGGC, the switch fluorescence ratio came out at 0.979.

Consider ACGTGCTATA, for which the switch fluorescence ratio worked out at 1.14.

Regarding CTATCGCTAT, the switch fluorescence ratio came out at 2.17.

CTCCGCCGGT: the switch fluorescence ratio worked out at 3.96.

Turning to TGAGGTCTCC, the switch fluorescence ratio turned out to be 1.06.

Regarding TGGAGGGTGT, the switch fluorescence ratio is 1.04.

As for TGGTGCGTTT, the switch fluorescence ratio was determined as 0.993.

Take ATAGTGAGAG: the switch fluorescence ratio is 1.04.

As for AGGAAGCGCG, the switch fluorescence ratio was 1.01.

With TGGTGCTGGT, the switch fluorescence ratio turned out to be 0.941.

With CTTAATACTG, the switch fluorescence ratio was 1.18.

CTACTCTTA: the switch fluorescence ratio is 1.06.

Consider GAAAGGGTGA, for which the switch fluorescence ratio was 1.03.

For TTTTGTCTGA, the switch fluorescence ratio is 1.

As for TGTCAAAGGG, the switch fluorescence ratio was 1.03.

As for AACGGTATAG, the switch fluorescence ratio was 1.06.

Turning to GGACGTACCT, the switch fluorescence ratio worked out at 1.8.

AGATTCGGAT: the switch fluorescence ratio came to 1.02.

As for TCGACTCGAA, the switch fluorescence ratio was 1.03.

Regarding CTGCGGTTTC, the switch fluorescence ratio turned out to be 1.04.

AAATACACCA: the switch fluorescence ratio is 1.12.

Consider TACCAGGGGA, for which the switch fluorescence ratio amounted to 1.43.

On to TGAAACCAGC, for which the switch fluorescence ratio worked out at 1.02.

In the case of TCTTGGTTA, the switch fluorescence ratio turned out to be 0.978.

As for TGGTGGCATT, the switch fluorescence ratio worked out at 1.14.

For the sequence GGACTGAGCG, the switch fluorescence ratio is 0.911.

For the sequence TATTCTCAGT, the switch fluorescence ratio stood at 0.991.

For the sequence TGGGAAGGT, the switch fluorescence ratio is 0.961.

Consider CGATAGTGTA, for which the switch fluorescence ratio is 1.01.

With AATCATCGTT, the switch fluorescence ratio was 0.97.

GCAATGTGTT: the switch fluorescence ratio came out at 1.02.

For the sequence GCTCTGCTAA, the switch fluorescence ratio came to 1.35.

TACTTTGGAC: the switch fluorescence ratio came to 1.04.

Consider ATCGACAGCC, for which the switch fluorescence ratio was found to be 1.03.

Turning to AGAATCGGG, the switch fluorescence ratio amounted to 0.988.

On to CGTTGGATCT, for which the switch fluorescence ratio came to 0.983.

Consider AATCCTGAGG, for which the switch fluorescence ratio is 1.01.

For the sequence CAGAAGAAGA, the switch fluorescence ratio came to 0.998.

In the case of ATGGGACGCA, the switch fluorescence ratio was 1.03.

On to TAGTAAAAGC, for which the switch fluorescence ratio amounted to 1.05.

On to TCGCGGTCAC, for which the switch fluorescence ratio worked out at 2.13.

For ATGTACTGGT, the switch fluorescence ratio was found to be 1.05.

Regarding TATTAGGGAA, the switch fluorescence ratio amounted to 0.959.

Take TGATTTTATA: the switch fluorescence ratio came to 0.98.

On to CGGTTTTTCC, for which the switch fluorescence ratio is 0.995.

For the sequence AACTTTCTGT, the switch fluorescence ratio was determined as 0.954.

Turning to ATACGCGAC, the switch fluorescence ratio stood at 1.84.

Turning to TTTCCGTAAG, the switch fluorescence ratio came to 1.06.

Take AAACTGCTG: the switch fluorescence ratio worked out at 1.03.

AGTGGAGCAA: the switch fluorescence ratio was determined as 2.05.

Regarding AGAAGCGGGT, the switch fluorescence ratio was found to be 0.983.

For GCGTATAGAG, the switch fluorescence ratio was 0.976.

For the sequence AAATCCAAAA, the switch fluorescence ratio was 1.

As for GTGGTTTACT, the switch fluorescence ratio came to 0.993.

Regarding TCGTACGGGG, the switch fluorescence ratio came out at 1.03.

CTTAACGGGT: the switch fluorescence ratio turned out to be 0.946.

Turning to CCCTACTTGG, the switch fluorescence ratio is 1.01.
